{"source": "paper PMC8329197", "about": "“Compounds targeting OSBPL7 increase ABCA1-dependent cholesterol efflux preserving kidney function in two models of kidney disease” (Nature Communications, 2021)", "key": {"human THP1 macrophages": {"test_system": "human THP1 macrophages", "experiment": "apoAI-mediated (ABCA1) cholesterol efflux from cholesterol-loaded THP1 macrophages", "assay_type": "cell-based"}, "OSBPL7": {"test_system": "T1, OSBPL7", "T1 construct": "Plasmids expressing each as a full-length protein with a C-terminal FLAG tag were obtained; expressed in transfected cells; host or cells: HEK293", "experiment": "Competition with ^3H-Cpd K UV cross-linking to FLAG-tagged OSBPL7 in HEK293 cells (immunoprecipitation, autoradiography)", "assay_type": "binding, human", "design": "OSBP7 percentage of inhibition / OSBP7 percentage of inhibition, average: concentration or dose not given beside the values", "protocol": "Briefly, a plasmid expressing a candidate target of interest fused with a FLAG tag was transfected into HEK293 cells. After 24 h, tritiated compound K at a concentration capable of inducing ABCA1-mediated cholesterol efflux (1.0 μM) was added for 3 h, then the live cells were exposed to UV-light (ʎ = 336 nm) to query potential compound/target cross-linking in situ. Cell lysates were prepared, the expressed protein was then selectively immunoprecipitated using an anti-FLAG antibody coupled to sepharose beads, bound proteins were separated by SDS-PAGE, and two identical blots were prepared and probed by western blot and by autoradiography to detect protein expression and presence or absence of compound crosslinking, respectively. The flow chart of this screen is illustrated in Fig. 2. Figure 2d illustrates the ability of Cpd A and Cpd G to displace tritiated Cpd K from overexpressed and immunoprecipitated OSBPL7. Figure 3b illustrates the use of this assay to detect binding of tritiated Cpd K to overexpressed and immunoprecipitated variants of OSBPL7 containing point mutations in the predicted oxysterol binging pocket of OSBPL7. […]"}, "Col4a3 KO mice": {"test_system": "Col4a3 KO mice", "experiment": "Alport syndrome model: ACR, serum creatinine, BUN, body weight (also vs ramipril)", "details": "Col4a3 KO; ramipril animals from a prior study"}, "[1]": {"details": "single experiments (3 per compound)"}}, "note": "Values joined by “and” are separate entries in the source; they are usually repeats but may differ in a detail not shown here. Equal entries are not always repeated."}
{"smiles": "O=C(N[C@@H]1CCCC[C@H]1O)c1cnc(OCC(F)(F)F)c(-c2ccc(Cl)c(Cl)c2)c1", "note": "[Cpd G]", "values": [{"measurement": "ABCA1 percentage of induction, average", "setting": "human THP1 macrophages; average of 3", "result": 99, "unit": "%"}, {"measurement": "ABCA1 percentage of induction", "setting": "human THP1 macrophages; [1]", "result": "88% and 96% and 114%"}, {"measurement": "OSBP7 percentage of inhibition, average", "setting": "OSBPL7; average of 3", "result": 78, "unit": "%"}, {"measurement": "OSBP7 percentage of inhibition", "setting": "OSBPL7; [1]", "result": "79% and 67% and 88%"}, {"measurement": "Effect on BUN and serum creatinine compared with ramipril", "setting": "Col4a3 KO mice", "result": "not inferior to ramipril"}]}
